Tests used:
human PDE11A4 = human PDE11A4 (Homo sapiens, UniProt Q9HCR9); assay: biochemical; conditions: read-out: PDE11A4 % inhib@500 nM
PDE6C = PDE6C (Homo sapiens, UniProt P51160); assay: biochemical; conditions: read-out: PDE6C % inhibition at 500 nM
PDE5A = PDE5A (Homo sapiens, UniProt O76074); assay: biochemical; conditions: read-out: PDE5A % inhibition at 500 nM
PDE10A [1] = target: T1, PDE10A (Homo sapiens, UniProt Q9Y233); assay: biochemical; conditions: read-out: PDE10A % inhibition at 500 nM
PDE3A = PDE3A (Homo sapiens, UniProt Q14432); assay: biochemical; conditions: read-out: PDE3A % inhibition at 500 nM
PDE4D3 [2] = target: T2, PDE4D3 (Homo sapiens, UniProt Q08499); assay: biochemical; conditions: read-out: PDE4D3 % inhibition at 500 nM
PDE4D3 [3] = target: T2, PDE4D3; conditions: 0.5 µM
PDE10A [4] = target: T1, PDE10A; conditions: 0.5 µM
PDE1A = PDE1A (Homo sapiens, UniProt P54750); assay: biochemical; conditions: read-out: PDE1A % inhibition@1 μM
MDCK-MDR1 cells = test system: MDCK-MDR1 cells
Protocol: Samples were taken from the donor and receiver chambers at 120 min. Each determination was performed in duplicate.

PDE2A = PDE2A (Homo sapiens, UniProt O00408); assay: biochemical; conditions: read-out: PDE2A % inhibition@1 μM
[5] = mouse, in vivo, po, 100 mg/kg
in vitro [6] = conditions: mouse, microsomes
PDE8A = PDE8A (Homo sapiens, UniProt O60658); assay: biochemical; conditions: read-out: PDE8A % inhibition@1 μM
PDE7B = PDE7B (Homo sapiens, UniProt Q9NP56); assay: biochemical; conditions: read-out: PDE7B % inhibition@1 μM
in vitro [7] = conditions: human, microsomes
PDE9A = PDE9A (Homo sapiens, UniProt O76083); assay: biochemical; conditions: read-out: PDE9A % inhibition@1 μM

Row | SMILES | inhibition at 0.5 µM (human PDE11A4) | inhibition at 0.5 µM (PDE6C) | inhibition at 0.5 µM (PDE5A) | inhibition at 0.5 µM (PDE10A [1]) | inhibition at 0.5 µM (PDE3A) | inhibition at 0.5 µM (PDE4D3 [2]) | further results
1 | Cc1noc(-c2cc(-c3ccnn3C)nc3c2c(C(F)F)nn3-c2ccccc2)n1 [6c] | 69% | – | – | – | – | – | –
2 | Cc1nn(-c2ccccc2)c2nc(-c3ccnn3C)cc(-c3nnc[nH]3)c12 [10b] | – | 85% | 63% | 32% | 12% | 12% | –
3 | CCn1nccc1-c1cc(C#N)c2c(C(F)F)nn(-c3ccccc3)c2n1 [compound 11] | – | – | – | – | – | > 95% | PDE4D3 % inhibition at 500 nM (PDE4D3 [3]): 97%
4 | CCn1nccc1-c1cc(-c2nnco2)c2c(C)nn(-c3ccc(F)cc3F)c2n1 [8g] | – | 56% | 38% | > 50% | 4% | 84% | PDE10A % inhibition at 500 nM (PDE10A [4]): 58%
5 | Cc1nn(-c2ccc(F)cc2)c2nc(-c3ccnn3C)cc(-c3nnc[nH]3)c12 [10c] | – | 83% | 55% | 41% | 10% | 10% | –
6 | CCn1nccc1-c1cc(-c2nnc[nH]2)c2c(C)nn(-c3ccccc3F)c2n1 [10a] | – | 80% | 65% | 35% | 20% | 17% | –
7 | CCn1nccc1-c1cc(-c2nnco2)c2c(C)nn(-c3ccc(F)cc3)c2n1 [8f] | – | 63% | 38% | 31% | 11% | 61% | –
8 | CCn1nccc1-c1cc(-c2nc(C)no2)c2c(C)nn(-c3ccccc3F)c2n1 [6a] | 69% | – | – | – | – | – | –
9 | Cc1nn(-c2ccc(F)cc2)c2nc(-c3ccnn3C)cc(-c3nncs3)c12 [4g] | – | 51% | 33% | 28% | 0% | 24% | inhibition at 1 µM (PDE1A): 19%; p-glycoprotein-mediated efflux (MDCK-MDR1 cells): Neither compound showed evidence of p–glycoprotein-mediated efflux; inhibition at 1 µM (PDE2A): 40%; pharmacokinetic profile [5]: the profile was poor; half-life (in vitro [6]): > 60 min; inhibition at 1 µM (PDE8A): 19%; inhibition at 1 µM (PDE7B): 0%; half-life (in vitro [7]): 57 min; inhibition at 1 µM (PDE9A): 30%
10 | Cn1nccc1-c1cc(-c2nnco2)c2c(C(F)F)nn(-c3ccccc3)c2n1 [8a] | – | 77% | 44% | 34% | 14% | 73% | –
11 | Cn1nccc1-c1cc(CC#N)c2c(C(F)F)nn(-c3ccccc3)c2n1 [compound 12] | – | – | – | – | – | > 95% | PDE4D3 % inhibition at 500 nM (PDE4D3 [3]): 95%
12 | Cc1nnc(-c2cc(-c3ccnn3C)nc3c2c(C)nn3-c2ccccc2Cl)o1 [5g] | 64% | – | – | – | – | – | –
13 | CCc1nnc(-c2cc(-c3ccnn3CC)nc3c2c(C)nn3-c2ccccc2)s1 [4b] | 53% | – | – | – | – | – | –
14 | CCc1nnc(-c2cc(-c3ccnn3CC)nc3c2c(C)nn3-c2ccccc2)o1 [5c] | 62% | – | – | – | – | – | –
15 | CCn1nccc1-c1cc(-c2nnc(C)o2)c2cnn(-c3ccccc3F)c2n1 [5e] | 55% | – | – | – | – | – | –
16 | CCn1nccc1-c1cc(-c2nnco2)c2c(C(F)F)nn(-c3ccc(F)cc3)c2n1 [8c] | – | 33% | 28% | > 50% | 5% | 13% | PDE10A % inhibition at 500 nM (PDE10A [4]): 65%
17 | CCn1nccc1-c1cc(-c2nnco2)c2c(C)nn(-c3ccccc3F)c2n1 [8b] | – | 85% | 45% | 50% | 15% | 68% | –
18 | Cn1nccc1-c1cc(-c2nnc[nH]2)c2c(C(F)F)nn(-c3ccccc3)c2n1 [10d] | – | 90% | 63% | 43% | 15% | 25% | –
19 | CCn1nccc1-c1cc(-c2nncs2)c2c(C)nn(-c3ccc(F)cc3)c2n1 [4h] | – | 47% | 34% | 51% | 0% | 25% | inhibition at 1 µM (PDE1A): 20%; p-glycoprotein-mediated efflux (MDCK-MDR1 cells): Neither compound showed evidence of p–glycoprotein-mediated efflux; inhibition at 1 µM (PDE2A): 40%; half-life (in vitro [6]): > 60 min; inhibition at 1 µM (PDE8A): 19%; inhibition at 1 µM (PDE7B): 0%; half-life (in vitro [7]): 48 min; inhibition at 1 µM (PDE9A): 0%
